± gives the standard deviation of the averaged measurements. The list shows a part of the results.
system: PfAP2-I AP2 domain 3 (GST-tagged); experiment: gcPBM binding intensity (ln(normalized median fluorescence intensity)); higher = stronger DNA binding
Method in brief: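 Each value is the highest Masliner-normalised natural-log median intensity across replicate spots of either orientation of a probe. The probes were primer-extended double-stranded 36-bp intergenic genomic sequences on an Agilent 4 × 180k array, alongside negative controls, exposed for 1 h to GST-tagged P. falciparum DNA-binding domains expressed in E. coli. Bound protein was picked up with Alexa488 anti-GST antibody and scanned at 488 nm.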

| Sequence | gcPBM binding intensity (ln) |
| --- | --- |
| ATTTATATATTTATATGTACATATCTATACATATAT [XGTACX_site7580] | 7.93 ± 0.59 |
| TTTTTAAAAAAAAAAAAATAAAAAAAAAAAAAATAT [XGTACX_negctrl_site7] | 7.64 ± 0.58 |
| AAATAAAGAATATAAATACACACTTAAATATATATT [CACACA_site4007] | 7.58 ± 0.61 |
| TGGACCAAACGACAAAAAAAAAGCAGAAAACAAAAA [GTGCAC_negctrl_site693] | 7.62 ± 0.73 |
| TATATTATATATTGGGGTACATATATATAAATATAA [XGTACX_site2296] | 7.97 ± 0.26 |
| TATCAATATTAAAAAGTGCAAAATAAAATATAAAAT [GTGCAC_site9486] | 10.7 ± 0.23 |
| AAAATAAATAGATAAGCACACAAGCATATAGACATA [CACACA_site7958] | 7.84 ± 0.47 |
| TAATTTCTTATGTATTGTACATATAATATATGATAT [XGTACX_site4898] | 7.64 ± 0.38 |
| AATATATTTATGCTCATGCACTTTTTTTTTTTTTTT [GTGCAC_site9654] | 9.01 ± 0.39 |
| TATGTTATATTATAAGGATAAATTTTGATTATATAA [TGCATGCA_negctrl_site600] | 7.36 ± 0.52 |
| AGAATAAAAAGGAACACACACACACCCATATATATA [CACACA_site3590] | 8.29 ± 0.66 |
| ATGTACATTTTTTTCACACATACATTAATTTATGAG [CACACA_site5801] | 7.96 ± 0.49 |
| TATATTTACATTGTAACACACATGAAATATTTATAT [CACACA_site6178] | 7.73 ± 0.35 |
| TAGACTAATCCCAAAAGTACAGAAAAATTATATTAT [XGTACX_site8663] | 7.84 ± 0.48 |
| TTATTTCAAATTAATTTACACACTTCATACTAAAAG [CACACA_site9039] | 8.11 ± 0.57 |
| CATTATTTACCGCCGTGTACGTAATGAGAAATTAAA [XGTACX_site4662] | 7.84 ± 0.4 |
| TAATAAAAAAAGTGCACACACATAATATTTATATAT [CACACA_site7548] | 9.7 ± 0.18 |
| TTTATTTATTATTAAAGTACTAAATTACATTATTAT [XGTACX_site6624] | 7.5 ± 0.15 |
| TATTTAATTACATGAACACACATTAGATATTTTTAA [CACACA_site7405] | 7.49 ± 0.51 |
| TGTTTTTTGTTCTTTACAAAAAAAAAAAAAAAAAAA [GTGCAC_negctrl_site61] | 8.12 ± 1.1 |
| ACATACAAGAATTAAACACACACAAAATATAAATTC [CACACA_site8985] | 7.8 ± 0.71 |
| TCTTGTATATACAGTAGTACTAAAAATTATTAAATA [XGTACX_site7896] | 7.79 ± 0.37 |

| Sequence | gcPBM binding intensity (ln) |
| --- | --- |
| GAAAACAAATATGTAGCACACATTCACATAATATAT [CACACA_site8731] | 8.21 ± 0.32 |
| TTATGTTGTAAATGCACACATACAAATACAGATACA [CACACA_site4876] | 9.79 ± 0.52 |
| ATTATAATGGTAAAGTGTACAAATTTTTATTACACC [XGTACX_site5274] | 8.49 ± 0.092 |
| ATAAATATAAAAATTTGTACATATATAGGTATAGGT [XGTACX_site1735] | 8.14 ± 0.6 |
| ATTGTTTATATTGATTGTACTCATTTTTTTTTTATT [XGTACX_site1946] | 8.1 ± 0.38 |
| ATATATTATATATATTACAACTTAAGAATATACATA [TGCATGCA_negctrl_site371] | 7.5 ± 0.18 |
| TCCTGTGATTATATAACACACATTATTGCTTATAAG [CACACA_site1518] | 8.05 ± 0.64 |
| ATAGTAAACGAAATAAAAAGATTAGCATAATATCCT [CACACA_negctrl_site1730] | 7.61 ± 0.79 |
| ATATATTGAAAAAAATGTACGTATTTTTTTATGTTA [XGTACX_site4654] | 7.92 ± 0.099 |
| ATTATATATATATATACACACACACCCTAAAAATAT [CACACA_site8463] | 8.29 ± 0.52 |
| AATCAAAATTAATTAACACACAATTTTAATATTCTT [CACACA_site2063] | 7.47 ± 0.58 |
| ACACATATATATTATTATTATATAATATATATATAT [CACACA_negctrl_site1545] | 8.62 ± 0.19 |
| ACATGTTTTATGTGCACACAAAGTTGTTATGAGGTT [CACACA_site4031] | 10.39 ± 0.078 |
| ATATAATATTTCATGTGGACACATTTTATGATTGTA [XGTACX_site8770] | 7.97 ± 0.47 |
| TTATTAAATTTTTTTTGTACTTATATATATATATAT [XGTACX_site2443] | 9.23 ± 0.18 |
| TATGAATGTATATGTTGTACATATAAATATTTATAT [XGTACX_site1146] | 7.72 ± 0.34 |
| ATTATTATATAGTGTGCATGCAATATTAATAAAACC [TGCATGCA_site245] | 8.79 ± 0.52 |
| AATAAATATATTACATATATGTGTAGTATTTTTTTA [TGCATGCA_negctrl_site268] | 7.58 ± 0.26 |
| TAAGCTTGTAACAGTTTACACACTAATATTTATAAA [CACACA_site3907] | 7.58 ± 0.42 |
| TATATATATATATATTGTACTAAATCATTTAAATGA [XGTACX_site8016] | 9.19 ± 0.57 |
| AAAAAACAAAAACACACGCACACAAAAAAAAAAAAA [CACACA_site802] | 8.29 ± 0.64 |
| CACAAATATACAAATACACACAAATATACACATATA [CACACA_site7176] | 7.67 ± 0.4 |

From the supplement of paper PMC11417369
